Reference: PubChem BioAssay AID2060490 (Molecular Pharmacology Branch, DTP, NCI, 2025)
Not every entry of the source has a single result; some have several. This is not the full list of results. There may be further records. The values listed for one entry are repeats across runs, samples, wells, individuals or studies. Brackets with × give the number of equal values in this list.

Test system: 885512-296-R-J2-PDC complex spheroid viability
Assay: Anticancer human tumor 885512-296-R-J2-PDC patient-derived breast carcinoma cell line growth inhibition [GQUAD]
Details: for IC50: compound alone; for viability, T/C: stronger effect = lower value
Excerpt: DNA G-quadruplex Stabilizer Agents in Combinations in Complex Spheroids
A high-throughput screen of multi-cell type tumor spheroids was designed to identify active combinations of DNA G-quadruplex stabilizer agents and targeted small molecules. Complex spheroids include a stromal component modeled by human endothelial cells (HUVEC) and fibroblasts modeled by human mesenchymal stem cells (MSCs). The concentration ranges selected for each drug and investigational agent were based upon clinically achievable concentrations if the clinical Cmax of the agent was known.
Compounds. The drugs and investigational agents: pidnarulex (CX-5461; NSC782164), APTO-253 (NSC789042), BRACO-19 (NSC847499), peposertib (NSC802822), ceralasertib (NSC780249), elimusertib (NSC800525), camonsertib (NSC841442), AZD-1390 (NSC803789), olaparib (NSC753686), talazoparib (NSC767125), ART-558 (NSC835418), sotorasib (NSC818433), MRTX-1133 (NSC836407), SN-38 (NSC673596), topotecan (NSC609699), etoposide (NSC141540), doxorubicin (NSC123127), gemcitabine (NSC613327), 5-fluorouracil (NSC19893), paclitaxel (NSC125973), vemurafenib (NSC761431), panobinostat (NSC761190), R-306465 (JNJ-16241199; NSC773264), adavosertib (NSC754352), TP-3654 (NSC805149), carboplatin (NSC241240), KSQ-4279 (NSC840948), and staurosporine (NSC755774) were obtained from the National Cancer Institute (NCI) Developmental Therapeutics Program Chemical Repository (34). The FDA-approved anticancer drug set is available from the NCI Developmental Therapeutics Program. […] The stock solutions were prepared in dimethyl sulfoxide (DMSO, Sigma-Aldrich, St. Louis, MO, cat. D2650) at 800-fold the tested concentration and stored at -70 degrees C prior to their use. All drugs and investigational agents were tested over a range starting from a high concentration at or near the clinical Cmax and decreasing in half-log increments. If the clinical Cmax for an agent had not been determined, the highest concentration tested was 10 microM.
2.3 Cell Culture. All cells were maintained in an incubator at 37 degrees C and 5% CO2 with 95% humidity. The PDC lines were cultured according to standard operating procedures established by the NCI PDMR. All PDCs were thawed and cultured in Matrigel-coated flasks prepared with a working solution of 1X Ham's F-12 nutrient mix, without supplementation (Invitrogen, cat. 11765054), 100 U/mL penicillin-streptomycin (Invitrogen, cat. 15140122), and 2.5% Matrigel (Corning Inc., cat. 354248) for the first three passages. The 857933-349-R-J2-PDC line was cultured in 6C/Colon 1B media, which includes advanced DMEM/F-12 (Thermo Fisher Scientific, cat. 12634028), 10 mM HEPES (Thermo Fisher Scientific, cat. 15630080), 1X GlutaMAX supplement (Thermo Fisher Scientific, cat. 35050061), 0.1 mg/mL primocin (InvivoGen, cat. ant-pm-2), 10% defined fetal bovine serum, heat inactivated (HyClone Laboratories Inc., cat. SH30070.03HI), 50% L-WRN conditioned media (ATCC, cat. CRL-3276), 1.25 mM N-Acetyl-L-cysteine (Sigma-Aldrich, cat. A9165), 10 mM nicotinamide (Sigma-Aldrich, cat. N0636), 1X B-27 supplement (Thermo Fisher Scientific, cat. 17504044), 1X N-2 supplement (Thermo Fisher Scientific, cat. 17502048), 10 microM Y-27632 dihydrochloride (Tocris Bioscience, cat. 1254), and 50 ng/mL human EGF recombinant protein (Thermo Fisher Scientific, cat. PHG0311). The 485176-168-R4-J1-PDC line was cultured in Panc media, which includes all 6C/Colon 1B media components plus 100 ng/mL human FGF-10 (Thermo Fisher Scientific, cat. 100-26), 500 nM SB-431542 (Selleckchem, cat. S1067), and gastrin (Tocris, cat. 3006).
[…]
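Also: spheroids exposed to the compounds for one week.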
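For viability, T/C in this document: percent of tumor spheroid viability relative to DMSO vehicle control wells.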

IC50 | SMILES | viability, T/C (compound alone 3.16 µM) | viability, T/C (compound alone 10 µM) | viability, T/C (compound alone 0.1 µM) | further results
377 nM, 7.59 µM, 314 nM | C=CCn1c(=O)c2cnc(Nc3ccc(N4CCN(C)CC4)cc3)nc2n1-c1cccc(C(C)(C)O)n1 | 3.36%, 99.1%, 2.68% | 2.77%, 34.1%, 2.62% |  | 
 | O=C(NO)c1cnc(N2CCN(S(=O)(=O)c3ccc4ccccc4c3)CC2)nc1 |  |  | 76.8%, 2.91%, 55.6% | viability, T/C (compound alone 0.0316 µM): 85.8%, 5.24%, 78.8%
> 10 µM (2×) and 579 nM | COc1ncnc(C2CC2)c1-c1ncc2cnn(Cc3ccc(-c4nc(C(F)(F)F)cn4C(C)C)cc3)c2n1 |  | 98.5%, 2.48%, 87.2% |  | 
41.1 nM, > 316 nM, 26 nM | Cc1[nH]c2ccccc2c1CCNCc1ccc(/C=C/C(=O)NO)cc1 |  |  |  | viability, T/C (compound alone 0.316 µM): 4%, 77%, 4.3%
 | Cc1[nH]c2ccc(F)cc2c1-c1nc2c3cccnc3c3ncccc3c2[nH]1 | 25.6, 19.3, 22, 20.8, 16.1, 37.9, 12.7, 12.2, 8.41, 9.48, 10.6, 9.88% |  |  | 
> 10 µM, 451 nM, 7.36 µM | CCCS(=O)(=O)Nc1ccc(F)c(C(=O)c2c[nH]c3ncc(-c4ccc(Cl)cc4)cc23)c1F | 96.9%, 2.52%, 89.9% | 61.3%, 3.42%, 35.7% |  | 
 | Cc1cnc(CNC(=O)c2c(=O)c3ccc(N4CCCN(C)CC4)nc3n3c2sc2ccccc23)cn1 |  |  | 63.4, 68.6, 68.2, 49, 59.4, 61.9, 58.4, 61, 74.8, 63.1, 64.5, 69.7% | 
 | CC(=O)O[C@H]1C(=O)[C@@]2(C)[C@H]([C@H](OC(=O)c3ccccc3)[C@]3(O)C[C@H](OC(=O)[C@H](O)[C@@H](NC(=O)c4ccccc4)c4ccccc4)C(C)=C1C3(C)C)[C@]1(OC(C)=O)CO[C@@H]1C[C@@H]2O |  |  | 3.6%, 52.8%, 3.36% | 
